Experiment [1] deals with V5-SBP-tagged INTS14 (wild type) (human) (UniProt Q96SY0). Put plainly: pull-down; coprecipitation from HEK293T cells overexpressing both partners; V5-SBP-tagged bait on streptavidin sepharose beads, λN-HA-tagged prey; RIPA buffer (50 mM HEPES pH 7.6, 150 mM NaCl, 1% NP-40, 0.5% sodium deoxycholate, 2 mM DTT) with DNase I and RNase A; 1 h at 4 °C; Western blot.
Experiment [2] addresses V5-SBP-tagged INTS13 (wild type) (human) (UniProt Q9NVM9). The description is as above.
The target in experiment [3] is V5-SBP-INTS13 ΔCMBM (residues 1–648) (human) (UniProt Q9NVM9). Put plainly: pull-down; coprecipitation of endogenous proteins with an overexpressed V5-SBP-tagged bait from HEK293T cells on streptavidin sepharose beads; NET buffer (50 mM Tris–HCl pH 7.5, 150 mM NaCl, 0.1% Triton X-100, 10% glycerol, 2 mM DTT) with DNase I and RNase A; Western blot.
The target of experiment [4] is GST-INTS13 cleavage module-binding motif (CMBM, residues 649–694) (human) (UniProt Q9NVM9). Briefly: pull-down; GST-INTS13 C-terminal constructs from E. coli lysates with insect cell extracts expressing cleavage module subunits, on glutathione sepharose; 50 mM HEPES pH 7.5, 200 mM NaCl, 2 mM DTT; Coomassie gel and Western blots. Background: In western blotting, separated proteins are transferred to a membrane and probed.

Sequences of proteins named here, by UniProt entry; tags and fusion partners are left off. A change or cut given only in a name is not applied to a line headed by its entry. A line that says so, or that is headed by a name, gives the form on record, which may keep a tag or linker. Residues count along the entry.
UniProt Q96SY0: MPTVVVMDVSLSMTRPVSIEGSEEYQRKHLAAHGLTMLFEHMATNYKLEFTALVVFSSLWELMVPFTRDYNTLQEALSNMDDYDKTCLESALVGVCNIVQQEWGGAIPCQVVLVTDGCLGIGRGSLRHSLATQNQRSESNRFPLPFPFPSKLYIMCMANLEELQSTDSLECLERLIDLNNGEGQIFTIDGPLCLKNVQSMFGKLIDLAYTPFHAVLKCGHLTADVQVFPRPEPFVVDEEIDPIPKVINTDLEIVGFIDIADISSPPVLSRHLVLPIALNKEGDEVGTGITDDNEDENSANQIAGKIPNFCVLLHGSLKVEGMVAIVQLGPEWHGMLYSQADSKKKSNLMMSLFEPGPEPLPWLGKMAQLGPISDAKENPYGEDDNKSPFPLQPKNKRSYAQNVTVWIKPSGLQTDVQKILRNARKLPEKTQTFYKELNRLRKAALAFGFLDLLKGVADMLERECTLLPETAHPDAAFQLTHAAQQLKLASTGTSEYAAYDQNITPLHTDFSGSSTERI
GST-tagged INTS14 VWA (1–210): residues 1-210 of Q96SY0
V5-SBP-INTS14ΔVWA (residues 211–518): residues 211-518 of Q96SY0
UniProt Q9NVM9: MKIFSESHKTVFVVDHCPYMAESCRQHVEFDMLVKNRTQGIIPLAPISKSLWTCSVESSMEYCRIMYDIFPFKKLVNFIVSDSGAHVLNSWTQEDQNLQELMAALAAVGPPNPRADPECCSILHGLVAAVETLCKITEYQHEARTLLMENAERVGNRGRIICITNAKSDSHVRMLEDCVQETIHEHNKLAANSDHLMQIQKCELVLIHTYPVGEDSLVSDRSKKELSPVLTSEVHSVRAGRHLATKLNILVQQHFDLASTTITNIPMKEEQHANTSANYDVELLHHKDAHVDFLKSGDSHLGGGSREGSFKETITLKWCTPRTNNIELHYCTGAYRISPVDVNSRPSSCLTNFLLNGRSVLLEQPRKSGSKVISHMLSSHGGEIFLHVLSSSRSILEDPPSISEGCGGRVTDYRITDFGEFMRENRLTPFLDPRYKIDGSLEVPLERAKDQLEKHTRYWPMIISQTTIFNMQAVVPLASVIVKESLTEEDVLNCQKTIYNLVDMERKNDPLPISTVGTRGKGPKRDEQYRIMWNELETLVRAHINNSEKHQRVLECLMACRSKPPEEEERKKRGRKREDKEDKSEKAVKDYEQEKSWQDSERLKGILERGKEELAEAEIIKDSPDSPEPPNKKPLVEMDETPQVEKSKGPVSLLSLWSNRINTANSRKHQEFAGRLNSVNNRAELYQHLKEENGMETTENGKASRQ
V5-SBP-INTS13 ΔCMBM (residues 1–648): residues 1-648 of Q9NVM9
GST-tagged INTS13 C-terminus (INTS13 C, residues 566–706): residues 566-706 of Q9NVM9
GST-INTS13 cleavage module-binding motif (CMBM, residues 649–694): residues 649-694 of Q9NVM9
UniProt Q9NVH2: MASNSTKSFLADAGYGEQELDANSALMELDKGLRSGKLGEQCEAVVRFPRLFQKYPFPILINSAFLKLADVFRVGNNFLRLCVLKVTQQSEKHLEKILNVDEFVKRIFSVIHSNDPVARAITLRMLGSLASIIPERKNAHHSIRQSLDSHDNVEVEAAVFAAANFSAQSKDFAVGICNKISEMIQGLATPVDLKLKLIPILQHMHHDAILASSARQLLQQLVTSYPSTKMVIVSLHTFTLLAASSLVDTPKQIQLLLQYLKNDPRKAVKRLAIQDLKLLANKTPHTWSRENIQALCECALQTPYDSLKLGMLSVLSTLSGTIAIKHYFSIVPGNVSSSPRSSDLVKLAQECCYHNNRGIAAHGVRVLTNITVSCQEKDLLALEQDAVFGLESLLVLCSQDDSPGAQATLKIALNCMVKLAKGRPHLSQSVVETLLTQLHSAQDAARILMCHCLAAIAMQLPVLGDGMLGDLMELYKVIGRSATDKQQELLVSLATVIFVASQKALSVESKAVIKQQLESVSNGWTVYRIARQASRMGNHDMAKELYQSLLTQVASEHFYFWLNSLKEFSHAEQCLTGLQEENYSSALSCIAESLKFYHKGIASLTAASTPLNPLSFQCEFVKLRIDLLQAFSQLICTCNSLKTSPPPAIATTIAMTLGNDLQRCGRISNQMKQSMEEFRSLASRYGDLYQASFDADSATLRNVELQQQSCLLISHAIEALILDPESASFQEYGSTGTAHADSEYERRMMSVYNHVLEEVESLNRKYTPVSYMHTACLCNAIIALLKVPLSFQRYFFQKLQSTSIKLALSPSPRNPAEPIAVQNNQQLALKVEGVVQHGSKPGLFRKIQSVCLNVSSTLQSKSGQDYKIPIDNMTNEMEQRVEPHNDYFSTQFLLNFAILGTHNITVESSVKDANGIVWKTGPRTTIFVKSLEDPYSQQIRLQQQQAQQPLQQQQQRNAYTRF
UniProt Q96HW7: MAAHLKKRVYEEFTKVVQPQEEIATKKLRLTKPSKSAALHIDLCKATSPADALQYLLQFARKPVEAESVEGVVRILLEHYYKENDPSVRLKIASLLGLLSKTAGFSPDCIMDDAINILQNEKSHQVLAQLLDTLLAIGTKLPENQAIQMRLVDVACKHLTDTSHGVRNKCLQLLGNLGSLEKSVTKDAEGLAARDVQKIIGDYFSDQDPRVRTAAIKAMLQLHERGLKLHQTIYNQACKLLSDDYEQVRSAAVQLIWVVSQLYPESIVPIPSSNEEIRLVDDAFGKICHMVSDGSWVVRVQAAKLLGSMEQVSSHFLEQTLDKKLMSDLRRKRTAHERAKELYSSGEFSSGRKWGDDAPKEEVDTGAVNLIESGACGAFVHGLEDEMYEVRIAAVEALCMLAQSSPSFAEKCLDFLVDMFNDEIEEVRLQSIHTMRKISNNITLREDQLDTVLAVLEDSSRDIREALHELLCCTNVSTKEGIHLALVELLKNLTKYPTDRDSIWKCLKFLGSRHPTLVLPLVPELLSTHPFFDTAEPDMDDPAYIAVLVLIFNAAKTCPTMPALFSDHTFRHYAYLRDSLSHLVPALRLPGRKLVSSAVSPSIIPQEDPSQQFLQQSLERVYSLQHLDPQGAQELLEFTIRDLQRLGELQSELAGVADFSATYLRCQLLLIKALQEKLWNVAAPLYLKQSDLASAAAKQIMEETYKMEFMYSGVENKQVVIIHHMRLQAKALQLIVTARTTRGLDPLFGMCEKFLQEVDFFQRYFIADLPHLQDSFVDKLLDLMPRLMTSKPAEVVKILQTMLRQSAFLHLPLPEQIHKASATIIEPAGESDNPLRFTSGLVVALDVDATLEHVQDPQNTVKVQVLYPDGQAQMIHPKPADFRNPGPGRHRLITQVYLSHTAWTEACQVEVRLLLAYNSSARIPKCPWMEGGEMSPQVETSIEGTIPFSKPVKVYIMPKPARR
UniProt Q5TA45: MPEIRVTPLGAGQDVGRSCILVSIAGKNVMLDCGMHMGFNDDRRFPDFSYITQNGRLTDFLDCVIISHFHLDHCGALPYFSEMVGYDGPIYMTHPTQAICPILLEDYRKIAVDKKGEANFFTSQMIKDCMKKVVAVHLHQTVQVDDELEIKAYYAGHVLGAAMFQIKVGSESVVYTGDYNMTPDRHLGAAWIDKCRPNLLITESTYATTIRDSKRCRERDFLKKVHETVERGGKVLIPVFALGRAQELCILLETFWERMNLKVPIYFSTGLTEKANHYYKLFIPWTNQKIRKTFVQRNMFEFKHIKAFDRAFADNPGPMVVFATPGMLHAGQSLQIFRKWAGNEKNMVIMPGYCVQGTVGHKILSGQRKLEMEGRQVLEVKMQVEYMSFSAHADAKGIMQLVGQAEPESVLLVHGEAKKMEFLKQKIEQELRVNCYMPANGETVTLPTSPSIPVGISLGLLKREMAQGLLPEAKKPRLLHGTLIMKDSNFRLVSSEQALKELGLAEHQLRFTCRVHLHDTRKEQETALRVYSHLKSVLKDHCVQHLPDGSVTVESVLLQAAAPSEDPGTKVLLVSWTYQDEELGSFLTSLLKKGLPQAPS
UniProt Q9NVR2: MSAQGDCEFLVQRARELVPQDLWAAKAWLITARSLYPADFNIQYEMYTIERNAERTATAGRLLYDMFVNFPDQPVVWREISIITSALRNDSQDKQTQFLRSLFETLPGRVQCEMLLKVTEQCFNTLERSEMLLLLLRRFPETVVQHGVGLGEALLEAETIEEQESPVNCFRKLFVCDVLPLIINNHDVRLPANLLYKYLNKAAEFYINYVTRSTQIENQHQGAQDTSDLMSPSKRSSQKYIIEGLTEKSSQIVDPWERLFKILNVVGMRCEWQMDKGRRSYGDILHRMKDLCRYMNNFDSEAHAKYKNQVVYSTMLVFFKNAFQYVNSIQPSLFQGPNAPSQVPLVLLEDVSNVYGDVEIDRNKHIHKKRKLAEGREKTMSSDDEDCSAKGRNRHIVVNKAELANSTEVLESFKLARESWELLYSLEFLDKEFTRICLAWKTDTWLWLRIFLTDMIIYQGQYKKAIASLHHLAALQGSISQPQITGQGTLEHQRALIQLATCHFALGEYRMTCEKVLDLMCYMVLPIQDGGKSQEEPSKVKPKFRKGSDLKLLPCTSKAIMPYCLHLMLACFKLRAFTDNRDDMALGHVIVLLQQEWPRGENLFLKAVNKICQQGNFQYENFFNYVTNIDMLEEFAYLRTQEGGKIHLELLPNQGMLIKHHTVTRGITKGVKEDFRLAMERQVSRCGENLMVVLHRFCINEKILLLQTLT
UniProt Q9NV88: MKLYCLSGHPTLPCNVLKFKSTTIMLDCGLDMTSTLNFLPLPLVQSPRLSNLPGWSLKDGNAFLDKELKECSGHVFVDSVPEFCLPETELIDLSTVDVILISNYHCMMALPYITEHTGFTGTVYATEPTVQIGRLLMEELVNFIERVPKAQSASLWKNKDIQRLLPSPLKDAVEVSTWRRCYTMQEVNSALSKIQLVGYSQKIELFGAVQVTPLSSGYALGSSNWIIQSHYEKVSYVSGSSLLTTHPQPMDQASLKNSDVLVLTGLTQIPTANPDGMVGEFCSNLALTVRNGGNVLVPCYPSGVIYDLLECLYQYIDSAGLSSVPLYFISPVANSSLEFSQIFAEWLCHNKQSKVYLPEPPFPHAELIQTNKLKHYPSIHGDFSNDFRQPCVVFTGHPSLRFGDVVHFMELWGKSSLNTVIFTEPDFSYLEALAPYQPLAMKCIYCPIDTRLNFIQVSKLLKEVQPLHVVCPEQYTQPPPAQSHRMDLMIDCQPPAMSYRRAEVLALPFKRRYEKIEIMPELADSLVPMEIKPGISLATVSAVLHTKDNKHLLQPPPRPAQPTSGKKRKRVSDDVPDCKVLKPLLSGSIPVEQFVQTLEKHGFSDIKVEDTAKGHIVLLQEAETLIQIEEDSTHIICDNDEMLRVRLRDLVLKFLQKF

The target in experiment [5] is V5-SBP-tagged INTS14 (wild type) (human) (UniProt Q96SY0). Briefly: pull-down; coprecipitation of endogenous proteins with an overexpressed V5-SBP-tagged bait from HEK293T cells on streptavidin sepharose beads; NET buffer (50 mM Tris–HCl pH 7.5, 150 mM NaCl, 0.1% Triton X-100, 10% glycerol, 2 mM DTT) with DNase I and RNase A; Western blot.
Experiment [6] has as its target V5-SBP-INTS14ΔVWA (residues 211–518) (human) (UniProt Q96SY0). Described as above.
Experiment [7] deals with endogenous INTS14 (human (endogenous in HEK293T)) (UniProt Q96SY0). Put plainly: SEC; nuclear extract of HEK293T cells fractionated on Superose 6 10/300 GL in 50 mM HEPES–KOH pH 7.9, 500 mM KCl, 1.5 mM MgCl2, 0.2 mM EDTA, 10% glycerol, 0.5 mM DTT; even fractions analysed by Western blot.
Experiment [8] concerns the target V5-SBP-INTS14 MIDAS pocket mutant D8A, S10A, S12A (human) (UniProt Q96SY0). Briefly: pull-down; coprecipitation from HEK293T cells overexpressing both partners; V5-SBP-tagged bait on streptavidin sepharose beads, λN-HA-tagged prey; RIPA buffer (50 mM HEPES pH 7.6, 150 mM NaCl, 1% NP-40, 0.5% sodium deoxycholate, 2 mM DTT) with DNase I and RNase A; 1 h at 4 °C; Western blot.

In experiment [9] the target is V5-SBP-INTS14 MIDAS pocket mutant L11E, R15A (human) (UniProt Q96SY0). Described as above.
Experiment [10] concerns the target V5-SBP-INTS14ΔVWA (residues 211–518) (human) (UniProt Q96SY0). The description is as above.
Experiment [11] deals with V5-SBP-INTS14 VWA domain (VWA14, residues 1–210) (human) (UniProt Q96SY0). The experiment is described as above.
Experiment [12] addresses GST-tagged INTS13 C-terminus (INTS13 C, residues 566–706) (human) (UniProt Q9NVM9). Put plainly: pull-down; GST-INTS13 C-terminal constructs from E. coli lysates with insect cell extracts expressing cleavage module subunits, on glutathione sepharose; 50 mM HEPES pH 7.5, 200 mM NaCl, 2 mM DTT; Coomassie gel and Western blots.
The target of experiment [13] is GST-tagged INTS14 VWA (1–210) (human) (UniProt Q96SY0). Put plainly: pull-down; GST-INTS14 VWA and MBP-INTS10 from E. coli lysates mixed with glutathione sepharose; lysis buffer 50 mM HEPES pH 7.5, 200 mM NaCl, 2 mM DTT; 30 min on ice.
Experiment [14] concerns the target V5-SBP-tagged INTS13 (wild type) (human) (UniProt Q9NVM9). Put plainly: pull-down; coprecipitation of endogenous proteins with an overexpressed V5-SBP-tagged bait from HEK293T cells on streptavidin sepharose beads; NET buffer (50 mM Tris–HCl pH 7.5, 150 mM NaCl, 0.1% Triton X-100, 10% glycerol, 2 mM DTT) with DNase I and RNase A; Western blot.

These are yes or no findings as the source states them, for the method shown. For some of these results: Binding seen in cells or lysates may run through a third protein. Some binding calls cover weakened binding; strength is not graded here.

With “λN-HA-tagged INTS14 (wild type) (from UniProt Q96SY0 1-518)”, the binding entry in experiment [1] and in experiment [2] was “binds” throughout.

In the case of “endogenous INTS7 (from UniProt Q9NVH2 1-962)”, the binding entry in [3] is reported as “no binding”.

Regarding 2S-INTS4 (from UniProt Q96HW7 1-963), the binding entry in [4] is reported as “no binding”.

Take 2S-INTS11 (from UniProt Q5TA45 1-600): the binding result in experiment [4] is reported as “no binding”.

In the case of “endogenous INTS13 (from UniProt Q9NVM9 1-706)”, the binding result in [5], in [6] and in experiment [7] was “binds” in each case.

Take “λN-HA-tagged INTS10 (from UniProt Q9NVR2 1-710)”: the binding entry in [8] is “no binding”; in [9] it was “no binding”; in [10], “no binding”; in experiment [11], “binds”.

As to “INT cleavage module (His10-INTS4–INTS9–(2S)-INTS11) (from UniProt Q96HW7 1-963; Q9NV88 1-658; Q5TA45 1-600) (complex)”, in experiment [12], the binding entry was “binds”.

On to “λN-HA-tagged INTS13 (wild type) (from UniProt Q9NVM9 1-706)”, for which the binding entry in experiment [1] and in experiment [2] was “binds” each time.

In the case of “2S-INTS9–(2S)-INTS11 (from UniProt Q9NV88 1-658; Q5TA45 1-600) (complex)”, the binding entry in experiment [4] is listed as “no binding”.

Turning to MBP-INTS10 (from UniProt Q9NVR2 1-710), the binding result in [13] is reported as “binds”.

Take “endogenous INTS14 (from UniProt Q96SY0 1-518)”: the binding entry in experiment [14] is reported as “binds”.

As for 2S-INTS9 (from UniProt Q9NV88 1-658), in experiment [4], the binding entry is “no binding”.

For the origin of these results see PMC7347597, “INTS10–INTS13–INTS14 form a functional module of Integrator that binds nucleic acids and the cleavage module” (Nature Communications, 2020).
